From the supplement of paper PMC12217912
This is one part of the list. The full chains were built here from the parent and the listed change. Values near 0.05 are background.

B1: TEV protease; numbered along this chain (parent)
chain: MGESLFKGPRDYNPISSSICHLTNESDGHTTSLYGIGFGPFIITNKHLFRRNNGTLVVQSLHGVFKVKDTTTLQQHLVDGRDMIIIRMPKDFPPFPQKLKFREPQREERICLVTTNFQTKSMSSMVSDTSCTFPSGDGIFWKHWIQTKDGQCGSPLVSTRDGFIVGIHSASNFTNTNNYFTSVPKNFMELLTNQEAQQWVSGWRLNADSVLWGGHKVFMVKPEEPFQPVKEATQL

Variants of: B1
Assay: raw area under fraction-flipped curve 0-4 h after induction (AUC4h, not background-subtracted), DNA-recorder readout of cleavage of the substrate (dimensionless); higher = more cleavage of the substrate by the protease variant
Details: temperature: 34 °C; time window: 0-4 h after rhamnose induction
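Also: Bxb1 expression induced with 0.2% (w/v) L-rhamnose at OD600 near 0.5, cultures sampled hourly, flipped fraction per protease–substrate barcode pair counted by paired-end Illumina sequencing.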

Row | Variant | area with substrate ENLYFCS | area with substrate ENLYFDS | area with substrate ENLYFFS | area with substrate ENLYFGS | area with substrate ENLYFIS | area with substrate ENLYFKS | area with substrate ENLYFMS | area with substrate ENLYFPS | area with substrate ENLYFRS | area with substrate ENLYFSS | area with substrate ENLYFTS | area with substrate ENLYFWS | area with substrate ENLYFYS | area with substrate ENLYFES | area with substrate ENLYFHS | area with substrate ENLYFLS | area with substrate ENLYFNS | area with substrate ENLYFVS
1 | L73G | 0.0537 | 0.0525 | 0.0478 | 0.0454 | 0.0543 | 0.0404 | 0.0247 | 0.0456 | 0.0446 | 0.0431 | 0.0516 | 0.0408 | 0.0426 | – | – | – | – | –
2 | L48H | 0.0574 | – | 0.0665 | 0.057 | 0.0551 | 0.061 | 0.0641 | 0.0482 | – | 0.0588 | 0.0582 | 0.0545 | – | 0.0523 | 0.0527 | 0.0416 | 0.0611 | 0.0187
3 | R51M | 0.0615 | – | 0.0684 | – | 0.0649 | – | 0.0716 | 0.0712 | 0.0533 | – | 0.0585 | 0.0481 | – | 0.0595 | 0.0747 | – | 0.0607 | –
4 | P89W | 0.0409 | – | 0.0421 | 0.0397 | 0.0497 | 0.0458 | 0.076 | 0.0246 | – | – | 0.0454 | 0.0603 | – | – | – | – | – | 0.033
5 | P89E | 0.0552 | 0.0522 | – | 0.0602 | 0.0624 | 0.0458 | 0.055 | 0.0624 | 0.0479 | 0.059 | 0.0521 | 0.0352 | 0.0497 | 0.0624 | 0.0567 | – | 0.0597 | –
6 | N45S | 0.0541 | 0.0685 | 0.0719 | 0.0513 | 0.0571 | 0.0589 | 0.0645 | 0.0533 | 0.0625 | – | 0.0421 | – | 0.0527 | 0.0608 | 0.0551 | 0.0567 | 0.056 | 0.0567
7 | V67R | 0.0559 | 0.0838 | 0.0592 | – | 0.0479 | – | 0.0384 | 0.0518 | 0.0295 | – | 0.0448 | 0.0495 | 0.0531 | 0.041 | 0.0611 | 0.0545 | 0.0614 | –
8 | I85C | 0.0487 | 0.0684 | 0.0614 | 0.0441 | 0.0644 | 0.0581 | 0.0652 | 0.0529 | – | – | 0.0545 | 0.0635 | 0.0686 | 0.0607 | 0.0405 | 0.0388 | – | –
9 | I85F | 0.069 | 0.052 | 0.0489 | – | 0.0568 | – | 0.0603 | – | 0.0583 | – | – | – | 0.0535 | 0.0635 | 0.0546 | – | – | –
10 | R109C | 0.0524 | 0.0585 | 0.063 | 0.0359 | 0.0475 | – | 0.0754 | 0.0624 | 0.0573 | 0.06 | – | 0.0624 | 0.0601 | 0.075 | – | – | 0.0771 | 0.0853
11 | R109P | 0.0665 | 0.0567 | 0.0663 | – | 0.0559 | – | 0.0833 | 0.0564 | – | 0.0649 | 0.0674 | 0.0626 | 0.0356 | 0.059 | 0.0595 | – | 0.0655 | 0.05
12 | P9A | 0.0691 | – | 0.0868 | 0.0604 | 0.0543 | – | 0.065 | 0.0569 | – | 0.0587 | – | 0.0547 | – | – | 0.0641 | – | – | 0.0685
13 | R106I | 0.0736 | – | 0.0715 | – | 0.0695 | – | 0.0678 | 0.0604 | – | 0.0647 | 0.0601 | 0.0685 | – | 0.0633 | – | – | – | –
14 | G39K | 0.0421 | 0.0354 | 0.0506 | 0.0299 | 0.0415 | – | 0.0537 | 0.049 | 0.0485 | – | 0.0338 | 0.0366 | 0.0341 | 0.046 | 0.0354 | – | 0.0511 | 0.0342
